Screen size: about 310,000 compounds; about 14,000 (4.5%) showed an effect of 50% or more. The effect is printed as a negative number. Some of the results follow.
target: human ether-à-go-go-related gene (hERG) potassium channel (human, UniProt Q12809); test: primary screen, population patch clamp on CHO cells stably expressing hERG
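Note: peak tail current of the secondary pulse compared with the same well before compound.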

human ether-à-go-go-related gene (hERG) potassium channel, sequence (Q12809 whole entry, looked up): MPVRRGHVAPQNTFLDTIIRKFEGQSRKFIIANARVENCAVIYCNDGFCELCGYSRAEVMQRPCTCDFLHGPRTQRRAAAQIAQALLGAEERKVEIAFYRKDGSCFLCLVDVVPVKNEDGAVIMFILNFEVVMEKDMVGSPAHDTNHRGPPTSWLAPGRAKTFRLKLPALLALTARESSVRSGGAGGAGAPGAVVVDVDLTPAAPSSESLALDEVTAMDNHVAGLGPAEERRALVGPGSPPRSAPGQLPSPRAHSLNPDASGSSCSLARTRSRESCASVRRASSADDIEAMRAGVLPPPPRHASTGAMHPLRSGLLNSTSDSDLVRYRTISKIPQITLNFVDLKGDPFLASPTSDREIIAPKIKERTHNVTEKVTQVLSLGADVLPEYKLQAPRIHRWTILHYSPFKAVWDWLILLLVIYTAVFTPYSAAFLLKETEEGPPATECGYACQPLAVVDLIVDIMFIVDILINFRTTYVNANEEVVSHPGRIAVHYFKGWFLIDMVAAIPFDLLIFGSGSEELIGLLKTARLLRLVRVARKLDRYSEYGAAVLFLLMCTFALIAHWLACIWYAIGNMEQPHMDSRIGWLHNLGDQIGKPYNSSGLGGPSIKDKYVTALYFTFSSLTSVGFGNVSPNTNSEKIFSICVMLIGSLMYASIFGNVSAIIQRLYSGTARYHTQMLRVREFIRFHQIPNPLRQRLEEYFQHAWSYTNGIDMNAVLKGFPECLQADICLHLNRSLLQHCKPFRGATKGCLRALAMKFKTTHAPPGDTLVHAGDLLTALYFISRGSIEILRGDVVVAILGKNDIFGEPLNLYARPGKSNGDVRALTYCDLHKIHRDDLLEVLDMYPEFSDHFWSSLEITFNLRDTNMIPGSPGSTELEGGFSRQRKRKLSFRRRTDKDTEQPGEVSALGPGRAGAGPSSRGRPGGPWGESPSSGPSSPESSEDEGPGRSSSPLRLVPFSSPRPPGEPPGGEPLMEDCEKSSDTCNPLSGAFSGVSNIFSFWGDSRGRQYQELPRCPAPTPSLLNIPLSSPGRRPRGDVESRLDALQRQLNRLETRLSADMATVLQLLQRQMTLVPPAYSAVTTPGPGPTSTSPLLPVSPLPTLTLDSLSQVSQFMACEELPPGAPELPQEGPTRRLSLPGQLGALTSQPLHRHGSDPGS

Structure (SMILES) | hERG current change (%, negative = inhibition) at 10uM [%]
COc1ccc(C2NC(=S)NC3=C2CCCC3=C2SCCS2)cc1 (stereo not shown) | 7.94
COC(=O)C1CCN(C(=O)Cc2ccc(Br)cc2)CC1 | -2.03
CCCCn1c(N)c(N(CCOC)C(=O)COc2ccc(Cl)cc2)c(=O)[nH]c1=O | 43.5
CCOC(=O)C1C(=O)CC(C)(O)C(C(=O)OCC)C1c1ccc(NC(C)=O)cc1 (stereo not shown) | 19.4
CC(=O)Nc1ccc(NC(=O)CN(c2ccc(C(C)C)cc2)S(=O)(=O)c2ccccc2)cc1 | 37.6
N#C/C(=C\c1ccc[nH]1)C(=O)Nc1ccccc1Cl | -18.2
O=S(=O)(NCC1CC1)c1cccc(S(=O)(=O)N2CCCC2)c1 | 1.43
COc1ccc(CCNS(=O)(=O)CCNC(=O)c2ccc3c(c2)OCO3)cc1 | -9.33
Cc1cc(C(=O)Nc2cccc(C)c2C)n(-c2ccccc2)n1 | -11.7
COc1ccc(C(CNC(=O)c2oc3cc(C)c(C)cc3c2C)N2CCCCC2)cc1 (stereo not shown) | 19.1
CCC(=O)N1c2ccc(S(=O)(=O)NCc3ccco3)cc2CC1C (stereo not shown) | -14.1
Cc1c(N)c(C(C)(C)C)cc(C(C)(C)C)c1[N+](=O)[O-] | 0.751
O=C(O)Cc1ccc(NC(=O)c2ccc(NC(=O)C3CC3)cc2)cc1 | -5.76
Cc1cc(C)c(C(N)=O)c(SCC(=O)c2cc(C)c(C)cc2C)n1 | 5.67
CC1Oc2ccccc2C=C1C1/C(=C(/O)c2ccccc2)C(=O)C(=O)N1CCCN(C)C (stereo not shown) | 11.9
O=C(COc1ccc(Cl)cc1)NCCSCc1ccccc1Cl | -4.8
C=CCSc1nc2sc3c(c2c(=O)n1-c1ccccc1)CCN(C)C3 | -7.23
Cc1ccc(-c2cc(C(=O)OCC(=O)N(C)C3CCS(=O)(=O)C3)c3ccccc3n2)c(C)c1 (stereo not shown) | -48.3
O=C(CCn1ccnc1)Nc1nc2ccccc2[nH]1 | 8.29
O=C(O)CCCCCN1C(=O)/C(=C/c2ccncc2)SC1=S | 16
COC(=O)C(NC(=O)c1ccc(OC)cc1)(Nc1ncc(S(=O)(=O)c2ccc([N+](=O)[O-])cc2)s1)C(F)(F)F (stereo not shown) | -5.41
O=C1CCC([N+](=O)[O-])C(c2cc3c(cc2Br)OCO3)N1 (stereo not shown) | -0.348

Structure (SMILES) | hERG current change (%, negative = inhibition) at 10uM [%]
Cc1cccc(-n2c(=O)c(C#N)cc3c(=O)n4ccccc4nc32)c1 | -8.28
Cc1cc(C)c(C(=O)CC2(O)C(=O)Nc3ccccc32)cc1C (stereo not shown) | 9.1
Cc1ccnc(NC(=O)c2ccc(S(=O)(=O)N3CCCCC3)cc2)c1 | -17.9
O=C(CN1CCN(Cc2ccc(Cl)cc2)CC1)N1CCc2ccccc21 | -67.5
O=C(NCC(=O)N1CC=C(c2ccccc2)CC1)c1ccco1 | -78.4
CC(CNC(=O)C(=O)NC(C)CCc1ccccc1)Cc1ccccc1 (stereo not shown) | 16.8
CN(C)CCCN(C(=O)c1ccc(Br)s1)c1nc2cc3c(cc2s1)OCO3.Cl | -52
S=C(Nc1ccc(Cl)cc1)Nc1ccc2cn[nH]c2c1 | 14.4
COCCSc1nnc(NC(=O)Cc2ccc(OC)c(OC)c2)s1 | -7.09
COc1cc(OC)c(OC)cc1C#N | -1.07
Cc1cccc(OC(=O)c2cccnc2)c1C | -2.35
CC(C)c1ccc(C(=O)Nc2ccc(N3CCOCC3)cc2)cc1 | -11.5
CCCC(=O)Nc1ccc(C(=O)Nc2ccc([N+](=O)[O-])cc2OC)cc1 | 13.4
Cc1[nH]c2ccccc2c1C(=O)CN1CCCCC1C (stereo not shown) | -10
Cc1ccc(OC(C)C(=O)N(Cc2cccs2)C2CCS(=O)(=O)C2)cc1C (stereo not shown) | 0.377
CC(C)CNC(=O)c1ccc(COc2ccc(Cl)cc2Cl)o1 | -18.5
C[C@H]1C=C(C(=O)O)O[C@@H](OCc2ccc(CO)cc2)C1 | 12.8
CC1(c2ccc(OC(F)F)cc2)NC(=O)N(CC(=O)Nc2ccc(N3CCCCC3)cc2)C1=O (stereo not shown) | 17.3
Cc1ccsc1C(=O)NNC(=O)c1csc(N2CCOCC2)n1 | 12.7
CC(C)CN(C(=O)c1ccc(C(F)(F)F)cc1)c1c(N)n(CC(C)C)c(=O)[nH]c1=O | 24.5
N=c1nc(SCCC(=O)O)ss1 | 3.64
Cc1cc(-c2csc(Nc3ccccn3)n2)ccc1F | 11.7

Structure (SMILES) | hERG current change (%, negative = inhibition) at 10uM [%]
O=[N+]([O-])c1cccc2c(S(=O)(=O)N3CCOCC3)cccc12 | -27.7
Cc1cccc(NC(=O)N2CCc3ccccc3C2)c1C | 4.41
Cc1ccc2nc(C(F)C(F)(F)F)[nH]c2c1 (stereo not shown) | 40.3
COc1ccc(N(CC(=O)NCCSCc2ccc(C)cc2)S(=O)(=O)c2ccccc2)cc1 | 3.04
CCCCOc1cccc(OCCCC)c1C(=O)Nc1cc(C)on1 | -1.49
COc1ccccc1C(=O)C1CCCN(C(=O)C2=CC(=O)CC(C)(C)O2)C1 (stereo not shown) | 12.5
O=C(/C=C/c1cccc([N+](=O)[O-])c1)N1CCN(Cc2ccc3c(c2)OCO3)CC1 | -41
CCCOc1ccc(/C=N/NC(=O)CN2CCCCC2)cc1OCC | -51.4
CN(c1ccccc1)S(=O)(=O)c1ccc(NC(=O)c2ccccc2C(=O)O)cc1 | 21.7
COc1ccc(S(=O)(=O)NCCc2c[nH]c3ccc(C)cc23)cc1 | 14.2
CCOC(=O)N1CCC(NC(=O)Cn2cccc2C(=O)c2ccccc2)CC1 | 3.19
COCCn1c(N)c(N(Cc2ccccc2)C(=O)CSCC(=O)Nc2ccc(OC)cc2)c(=O)[nH]c1=O | 3.66
O=C(NCCCN1CCOCC1)c1sc2cc([N+](=O)[O-])ccc2c1Cl | -54
OCC1(CCc2ccccc2)CCN(Cc2cnc(N3CCCC3)s2)CC1 | -70.3
CCOc1cc(/C=C2\C(=O)N(c3cccc(C(=O)O)c3)N=C2C(F)(F)F)ccc1OCC(=O)Nc1ccccc1OC | 1.54
CCOC(=O)N1CCC(N(CCOC)C(=O)Nc2ccc(C)c(C)c2)CC1 | -23.6
CCOC(=O)c1c(NC(=O)CN2CCN(C(=O)C3CCCO3)CC2)sc(C)c1C (stereo not shown) | -20.8
CCn1c(CNC(=O)c2ccc3c(c2)OCO3)nnc1SCC(=O)Nc1ccccc1F | -6.31
Cc1csc2nc(O)c(C(=O)NCCC3=CCCCC3)c(=O)n12 | -2.61
Cc1ccccc1Nc1nc(N)nc(CSc2n[nH]c(N)n2)n1 | 14.1
CN(C(=O)CCN1C(=O)/C(=C/c2ccccc2)SC1=S)C1CCS(=O)(=O)C1 (stereo not shown) | -10.6
O=C1C(CSCc2ccccc2)NC(=S)N1c1ccccc1 (stereo not shown) | 16

Structure (SMILES) | hERG current change (%, negative = inhibition) at 10uM [%]
C=CCN(C(=O)CNS(=O)(=O)c1ccccc1)C(C(=O)NCCOC)c1cccnc1 (stereo not shown) | 2.57
O=C(Nc1ccc2c(c1)OCO2)c1ccc(Cl)c(S(=O)(=O)N2CCOCC2)c1 | -33.6
CCOc1ccc(C(=O)N2CCn3c2nc2ccccc23)cc1 | -5.37
CCOc1ccc(C(=O)NCC(=O)OCc2nnc(-c3ccccc3)o2)cc1OCC | -19.2
CC(c1ccccc1)n1cc(C(=O)NCC2COc3ccccc3O2)nn1 (stereo not shown) | 14.3
CC(=O)Nc1ccc(NC(=O)C2CCCN2C(=O)NCc2ccccc2)cc1 (stereo not shown) | 16.4
CCOP(=O)(c1ccccc1)c1nc(-c2ccccc2C)oc1NCc1ccccc1 (stereo not shown) | 15.5
CCC1CCCCN1CCCNC(=O)c1c(O)nc2cc(C)ccn2c1=O (stereo not shown) | -0.206
COc1ccc(NC(=O)C2CC2)cc1-n1cnnn1 | 5.86
COc1ccc(-c2c(C)nn3c(N)c(C#N)cnc23)cc1OC | 11.9
CCCCNC(=O)NC1CCCC1 | 4.48
COc1ccc(Nc2nc(-c3ccccc3F)nc3ccccc23)cc1OC | 0.695
CN(C)S(=O)(=O)c1cccc(C(=O)NC(=S)N(CCC#N)Cc2cccnc2)c1 | 8.09
COc1cc(/C=C2/C(=O)NC(=O)N(c3ccc(C)cc3)C2=O)cc(OC)c1OC | 7.15
Cc1nnc2n1N=C(c1ccc(OC(F)F)cc1)C(C)S2 (stereo not shown) | -32.7
O=C(Oc1ccc2c(c1)C(=O)c1ccccc1CO2)c1ccccc1 | 2.6
c1nc2ccc(Cc3ccc4nc[nH]c4c3)cc2[nH]1 | 6.72
CCc1cc2c(=O)n(Cc3ccccc3)c(SC3CCOC3=O)nc2s1 (stereo not shown) | -80.4
COc1ccc(CCNC(=O)C(=O)NCC2OCCN2C(=O)c2ccc(Cl)cc2)cc1 (stereo not shown) | 7.49
COc1cc(S(=O)(=O)N2CCN=C2c2ccccc2)ccc1Cl | 16.6
COC(=O)c1ccc(NC(=O)CSc2nncn2-c2cccnc2)cc1 | -1.37
CCC(=O)Nc1nnc(SCC(=O)Nc2ccc3c(c2)OCCO3)s1 | 20.8

From publication PMC4336329 (PLoS ONE, 2015)
